Data as given in PubChem BioAssay AID1508642 (National Center for Advancing Translational Sciences (NCATS), 2021).
Among all 43,000 compounds or so, about 200 (0.47%) were called active. Inconclusive results (about 12%) are left out. Calls follow the shape of the dose curve; as a rule, active = well fitted cell-killing curve with a large enough effect; inconclusive = small, poorly fitted or top-dose-only effect, or effect the other way; inactive = flat fitted curve, though single readings scatter. The list shows a part of the results.

Test: Cell viability qHTS assay in S16 Pmp22-F2sN cells; also: nearly all actives have a fitted effect of over 65% in size
Settings: S16 Pmp22-F2sN Schwann cells viability, CellTiter-Glo, 24 h; series mostly up to 57.5 µM; activity change, negative = cytotoxicity: at the top concentration
How it was run: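 Viability was measured by CellTiter-Glo luminescence (15 min, room temperature). This followed 24 h at 37 °C of compound exposure (23 nL pin transfer) in S16 Pmp22-F2sN Schwann cells, 500-1,000 per well.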
% is scaled to controls: 0 for no effect and ±100 for the full control effect; potency is read from the fitted curve at half-maximal effect.

Structure (SMILES) | activity change, negative = cytotoxicity | Potency
CN(C)CCN(Cc1ccccc1)S(=O)(=O)c1csc(C(N)=O)c1 | inactive: -21.7% | 
Cc1cc(NC(=O)c2ccco2)cc(-c2nc3ccccc3o2)c1O | inactive: 3.71% | 
CCCNC(=O)Cn1nc(-c2ccc(C)cc2)c2cnc3ccc(CC)cc3c21 | inactive: 8.43% | 
COc1ccccc1C(=O)NCC(c1ccc(N(C)C)cc1)N1CCc2ccccc21 (configuration not stated) | inactive: 8.47% | 
COc1cc(OC)cc(-n2c(=O)c3ccccc3n(Cc3ccccc3C#N)c2=O)c1 | inactive: -15.2% | 
COC(=O)c1ccccc1NC(=O)Cn1nnc(-c2ccc(OC)cc2)n1 | inactive: -22.5% | 
CCCCc1nn2c(=O)cc(COC(=O)c3ccc4c(c3)OCO4)nc2s1 | inactive: -11.4% | 
CCOC(=O)c1cc(-c2ccc(OC)cc2)n(CCC(=O)Nc2cccc(C)c2C)c1C | inactive: 3.15% | 
COc1cc(NC(=O)c2ccc(-c3nc(CSc4ccccc4)c(C)o3)cc2)cc(OC)c1 | inactive: -14.2% | 
CCc1ccc(NC(=O)Cn2nc(C(F)(F)F)c3c2CCCC3)cc1 | inactive: 0.13% | 
CCC(=O)Nc1cc(-c2cn3cccnc3n2)ccc1OC | inactive: 1.17% | 
CCOc1ccc(-c2cn3c(n2)sc2cc(C(=O)NCCCN4CCCCC4)ccc23)cc1 |  | active: 7.08 µM
CC1=C(C(=O)Nc2ccccc2)C(C(C)C)n2nc(SCc3ccccc3C)nc2N1 (configuration not stated) | inactive: 7.29% | 
Cc1nc(S(=O)(=O)N2CCN(c3cccc(Cl)c3)CC2)cn1C | inactive: 6.82% | 
O=C(NCCc1ccc(Cl)cc1)c1ccc2nc(CCc3ccccc3)oc2c1 | inactive: 5.08% | 
COc1cc(OC)cc(-c2nnc(SCC(=O)c3ccc([N+](=O)[O-])cc3)o2)c1 | inactive: 2.59% | 
CC(C)Cn1c(CN2CCN(c3cccc(Cl)c3)CC2)nc2c1c(=O)[nH]c(=O)n2C | inactive: -5.45% | 
O=C(CSc1nncn2c1cc1occc12)Nc1ccc(F)c(Cl)c1 | inactive: -2.71% | 
COc1ccc(N(CC(=O)NCCc2ccc(C)cc2)S(=O)(=O)c2c(C)nn(C)c2C)cc1 | inactive: 16.3% | 
COc1cc(Nc2nn(-c3ccc(OC(F)(F)F)cc3)nc2C(C)=O)cc(OC)c1 | inactive: -0.368% | 
Cn1c(=O)c2c(nc(N3CCOCC3)n2Cc2ccccc2Cl)n(C)c1=O | inactive: 9.96% | 
COCCCNC(=O)CCCn1c(=O)c2ccccc2n(CC(=O)Nc2ccc(C)cc2Cl)c1=O | inactive: 23.6% | 
CC(C)Cn1c(-c2ccccc2Cl)nc2ccccc21 | inactive: 1.6% | 
O=C(NCCc1ccc(Cl)cc1)c1nnc(Cc2ccc(Cl)cc2Cl)o1 | inactive: 1.06% | 
O=C(CCS(=O)(=O)c1cc2c3c(c1)CCN3C(=O)CC2)Nc1cccc(Br)c1 | inactive: 8.81% | 
COc1ccc(CCNS(=O)(=O)c2cc(-c3onc(C)c3C)ccc2OC)cc1OC | inactive: -2.01% | 
CCOc1ccc(CCNC(=O)c2ccc3c(c2)N(Cc2ccccc2F)C(=O)c2ccccc2S3=O)cc1OCC (configuration not stated) | inactive: 26.5% | 
